Assay results as given in PubChem BioAssay AID686979 (National Center for Advancing Translational Sciences (NCATS), 2013).
Several values for one entry are separate records, joined by “and”; a condition that tells them apart may be missing. Equal entries are not always repeated. Hit rate of the full screen: of about 420,000 compounds, about 50,000 (12%) were called active. Inconclusive means that the source gave no clear call. Such entries were picked first, then a sample of the others. Calls follow the shape of the dose curve; as a rule, active = well fitted inhibition curve with a large enough effect; inconclusive = small, poorly fitted or top-dose-only effect; inactive = flat fitted curve, though single readings scatter. Potencies of inconclusive entries are doubtful fits and often do not repeat.

assay: qHTS for Inhibitors of human tyrosyl-DNA phosphodiesterase 1 (TDP1): qHTS in cells in presence of CPT; settings: chicken DT40 Tdp1-/-;hTDP1 cells + 20 nM CPT, ATP luminescence, 48 h; activity change, negative = growth inhibition: at 46.2 µM (top of the series) unless noted; also: nearly all actives have a fitted effect of over 55% in size
How it was run: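 Chicken DT40 Tdp1-/- cells complemented with human TDP1, 400 cells/well, exposed to compounds plus 20 nM camptothecin for at least 48 h at 37 C; viability read as ATP content by CellTiter-Glo luminescence.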
% is scaled to controls: 0 for no effect and ±100 for the full control effect; potency is read from the fitted curve at half-maximal effect; tags tell the direction and shape of the fitted curve.

SMILES | Potency | activity change, negative = growth inhibition
CCCn1c(=N)c(C(=O)NC2CCCC2)cc2c(=O)n3cccc(C)c3nc21 | inconclusive: 29.1 µM [inhibitor, single point] and inconclusive: 23.1 µM [inhibitor, single point] | 
Cc1cccc(NC(=O)CNC(=O)COc2cc(F)ccc2[N+](=O)[O-])c1C | inconclusive: 29.1 µM [inhibitor, single point] | 
CC[C@H](C)[C@H]1CNC(=O)C(=O)N1CC1CCN(CCCc2ccc(OC)c(OC)c2)CC1 |  | inactive: -2.23%
CCC(=O)N1c2ccc(S(=O)(=O)N3CCOCC3)cc2CC1C (configuration not stated) |  | inactive: -2.53%
CC(=O)c1c(C)[nH]c(C(=O)OCc2nnc(-c3ccc([N+](=O)[O-])cc3)o2)c1C | active: 23.1 µM | 
Cc1cccc(NC(=O)C2CCN(S(C)(=O)=O)CC2)c1C |  | inactive: -3.63%
Cc1ccccc1C(=O)N1CCC(C(=O)O)CC1 |  | inactive: -5.47%
Cc1cc(C)cc(C(=O)N(c2ccccn2)C(C)c2ccco2)c1 (configuration not stated) | inconclusive: 23.1 µM [inhibitor, single point] | 
CC1(C(=O)NS(=O)(=O)c2cccc(C#N)c2)CCN1C(=O)C1(c2ccc(Cl)cc2)CC1 (configuration not stated) |  | inconclusive: -27.5% [inhibitor]
CC1=C(C)CC(C(=O)Nc2cccc(Cl)c2)C(C(=O)O)C1 (configuration not stated) | inconclusive: 23.1 µM [inhibitor, single point] | 
COC(=O)c1cccc(NC(=O)CN2CCc3ccccc3C2)c1 |  | inactive: -1.97%
COc1ccc(COC(=O)c2nc3nc(C)cc(C)n3n2)cc1F |  | inactive: 11.9%
O=C(NCc1ccc(C(F)(F)F)cc1)C1CC(c2c(Cl)cccc2Cl)=NO1 (configuration not stated) | inconclusive: 25.9 µM [inhibitor, single point] | 
CC(=O)/C=C\c1ccc(OC(=O)c2cccnc2)cc1 | inconclusive: 20.6 µM [inhibitor, single point] | 
O=C(NC(=S)Nc1ccc(Oc2ccccc2)cc1)c1ccc(Cl)cc1 | inconclusive: 25.9 µM [inhibitor, single point] | 
CN(CC(=O)Nc1ccc(Cl)cc1)C(=O)CNC(=O)Cc1cccc2ccccc12 | inconclusive: 18.4 µM [inhibitor, partial curve, poor fit] | 
Cc1ccc(S(=O)(=O)Nc2cc(-c3ccccc3)nn2C)cc1Cl |  | inactive: -12.4%
CCCc1cc(=O)oc2c(C)c(OCC(=O)Nc3ccc(CN4CCOCC4)cc3)ccc12 | active: 14.6 µM | 
CCc1ccc(NC(=O)C(C)Sc2ccc(S(=O)(=O)N3CCN(C)CC3)cn2)cc1 (configuration not stated) | inconclusive: 29.1 µM [inhibitor, single point] | 
Cc1cc(NC(=O)COC(=O)[C@H](Cc2c[nH]c3ccccc23)NC(=O)c2ccc(F)cc2)no1 |  | inactive: -7.86%
COc1cc(OC)c(OC)cc1C=Cc1ccc2ccccc2n1 | active: 16.4 µM | 
COc1cccc(CN(C)C(=O)CSCC(=O)Nc2cccc(C)c2)c1OC | inconclusive: 29.1 µM [inhibitor, single point] | 
O=C(NCCS(=O)(=O)c1ccc(Br)cc1)c1ccc(Cl)cc1 |  | inactive: -14.8%
O=[N+]([O-])c1ccc(S(=O)(=O)N2CCN(Cc3ccco3)CC2)cc1 |  | inactive: -26.6%

SMILES | Potency | activity change, negative = growth inhibition
Cc1nc(CSc2ccc(Cl)cc2)cc(NCc2ccccc2)n1 | inconclusive: 20.6 µM [inhibitor, single point] | 
Cc1cc(OCCn2cnc3ccccc3c2=O)cc(C(C)C)c1 |  | inactive: -22.8%
Clc1ccc(Cn2ncc3c(NCc4ccco4)ncnc32)c(Cl)c1 | inconclusive: 29.1 µM [inhibitor, single point] | 
COc1cc2c(cc1OC)CC(=O)NC=C2 |  | inactive: 6.56%
CC(=C/c1ccc(C(C)C)cc1)/C=N/NC(=O)c1ccncc1 | inconclusive: 20.6 µM [inhibitor, partial curve] | 
CCOc1cccc(C(=O)Nc2ccc3oc(-c4cccnc4)nc3c2)c1 | inconclusive: 29.1 µM [inhibitor, single point] and inconclusive: 8.2 µM [inhibitor, partial curve] | 
COCCn1c(=O)c(-c2cccc(C#N)c2)nc2cnc(N3CCN(C)CC3)nc21 |  | inactive: -5.73%
CC(=O)c1cccc(NC(=O)C2Cc3c(-c4ccc(Cl)cc4)ccnc3O2)c1 (configuration not stated) | inconclusive: 14.6 µM [inhibitor, partial curve, poor fit] | 
COc1cc2cnc(-c3ccsc3)c(-c3ccc(F)cc3)c2cc1OC | inconclusive: 25.9 µM [inhibitor, partial curve, poor fit] | 
COc1ccc(N2CCN(C(=O)CSc3nnc4c5cc(C)ccc5n(C)c4n3)CC2)cc1 | inconclusive: 29.1 µM [inhibitor, single point] | 
COc1ccc(C)cc1S(=O)(=O)NCC(c1cccnc1)N1CCc2ccccc2C1 (configuration not stated) |  | inactive: -27.5%
CCN(CC)S(=O)(=O)c1ccc(N/N=C(\C)c2ccc3c(c2)OCO3)c([N+](=O)[O-])c1 |  | inconclusive: -34.3% [inhibitor]
O=C1C(Cl)=C(Nc2cccc(O)c2)C(=O)N1Cc1ccccc1 | active: 23.1 µM | 
COc1ccc(OCCn2c(C)nc3cc(C)c(C)cc32)cc1 | active: 14.6 µM | 
Cc1cc(C)cc(NC(=O)C(OC(=O)c2ccc(NC(=O)CC#N)cc2)c2ccccc2)c1 (configuration not stated) | inconclusive: 18.4 µM [inhibitor, partial curve, poor fit] | 
CCCCSCCCNC(=O)c1cn(CC)c2ccc(S(=O)(=O)N3CCCCCC3)cc2c1=O | inconclusive: 18.4 µM [inhibitor, single point] | 
COCCC(=O)N1CCC(Oc2ccc(C(=O)N3CCCCCCC3)cc2)CC1 | inconclusive: 29.1 µM [inhibitor, single point] | 
O=C(CN1C(=O)C2CC=CCC2C1=O)Nc1nc2ccccc2[nH]1 (configuration not stated) |  | inactive: 5.88%
COc1cc2[nH]c3c(N4CCN(c5ccc(Cl)cc5)CC4)ncnc3c2cc1OC | active: 18.4 µM | 
Cc1ccc(CCNS(=O)(=O)c2ccc3c(c2)C(C)(C)C(=O)N3C)cc1 | inconclusive: 29.1 µM [inhibitor, single point] | 
Cc1ccc(NC(=S)N(CCN2CCOCC2)Cc2cc3cc4c(cc3[nH]c2=O)OCCO4)cc1 | inconclusive: 29.1 µM [inhibitor, single point] | 
N#CC(=C(O)COC(=O)CCC1CCCCC1)c1nc2ccccc2[nH]1 | active: 5.8 µM | 
COc1ccc2cc(C(=O)C3CCCN(C(=O)c4cncs4)C3)ccc2c1 (configuration not stated) | active: 18.4 µM | 
COc1ccc(CC(=O)OCC(=O)Nc2ccc(N3CCOCC3)cc2)cc1 |  | inactive: -4.73%

SMILES | Potency | activity change, negative = growth inhibition
Cc1cnn(Cc2ccccc2)c1N |  | inactive: -6.85%
COc1cccc(OC)c1OCCCCCc1c(C)n[nH]c1C | inconclusive: 18.4 µM [inhibitor, single point] | 
CC(=O)c1ccc(NC(=O)COC(=O)C2CC3C=CC2C3)cc1 (configuration not stated) |  | inactive: -20.4%
COc1ccc(CCNC(=O)COC(=O)Cc2cc(OC)c(OC)c(OC)c2)cc1 |  | inactive: -2.97%
CCOc1ccc(C(=O)Nc2cc(S(=O)(=O)Nc3ccccc3Cl)ccc2N2CCOCC2)cc1 | inconclusive: 29.1 µM [inhibitor, single point] | 
COc1ccc(/C=N/NC(=O)Nc2nonc2N)cc1 |  | inactive: -5.93%
Cc1ccc2cc(CN(Cc3ccc(F)cc3)Cc3nnnn3C3CCCC3)c(=O)[nH]c2c1 | active: 29.1 µM | 
CCc1nn(C(C)C(=O)NCCc2ccc(OC)c(OC)c2)c(=O)c2cc3occc3n12 (configuration not stated) | inconclusive: 23.1 µM [inhibitor, single point] | 
S=C(N/N=C/c1ccccc1Cl)Nc1ccccc1 | active: 16.4 µM | 
O=C(CC1SC(=Nc2ccc(OC(F)F)cc2)N(CCN2CCOCC2)C1=O)Nc1ccc(F)cc1F (configuration not stated) | inconclusive: 20.6 µM [inhibitor, single point] | 
CN1C(=O)c2ccccc2Sc2ccc(NC(=O)N3CCN(c4ccccc4F)CC3)cc21 | inconclusive: 18.4 µM [inhibitor, single point] | 
CC(O)(c1ccc(F)c(F)c1)c1nc(-c2ccc(Cl)cc2)cs1 (configuration not stated) | inconclusive: 18.4 µM [inhibitor, single point] | 
COc1ccc2[nH]c(=O)c(CN(CC3CCCO3)C(=O)Nc3ccccc3OC)cc2c1 (configuration not stated) | active: 13 µM | 
Cc1ccc(SC[C@H](CC(C)C)N2CCN(CCc3ccccc3)CCC2=O)cc1 | inconclusive: 29.1 µM [inhibitor, single point] | 
Cc1nc(-c2ccc(O)c(O)c2)cs1 | active: 16.4 µM | 
COCCN1CCC(CNCc2cn(-c3cc(C)ccc3C)nc2-c2ccccc2)C1 (configuration not stated) | inconclusive: 23.1 µM [inhibitor, partial curve, poor fit] | 
CCCCN(CCCC)C(=O)CCS(=O)(=O)c1ccc2c(c1)n(C)c(=O)c(=O)n2C | inconclusive: 23.1 µM [inhibitor, single point] | 
O=C(NCCCNC(=O)c1ccc(-c2cc(Cl)ccc2Cl)o1)c1cnccn1 | inconclusive: 20.6 µM [inhibitor, single point] | 
O=C1OCCN1CCN(CN1C(=O)CCC1=O)CN1C(=O)CCC1=O | inconclusive: 29.1 µM [inhibitor, single point] | 
O=C(O)CNS(=O)(=O)c1c(Cl)cccc1Cl |  | inactive: 0.165%
COc1ccc(C(=O)O)c(O)c1OC |  | inactive: 13%
CCN(CC)c1ccc(NC(=O)CCCOc2cccc(C)c2)cc1 | inconclusive: 16.4 µM [inhibitor, single point] | 
CCNC(=O)c1ccccc1-c1nc(-c2ccccc2Cl)no1 | inconclusive: 29.1 µM [inhibitor, single point] | 
C=CC[C@@H](CC(=O)N[C@H](CO)Cc1ccccc1)C(=O)N[C@@H](COC(=O)[C@@H](CC=C)CC(=O)OC(C)(C)C)Cc1c[nH]c2ccccc12 | active: 16.4 µM | 
